Measurements taken from the supplement of paper PMC3334620.
Over roughly 33,000 sequences, “E-score (-0.5 to 0.5)” has its median near -0.043; the highest 2% begin near 0.37. The list shows a part of the results.

target: T1, Upc2 (UniProt Q12151); test: PBM E-score (8-mer binding enrichment) (E-score (-0.5 to 0.5)); higher = stronger / more preferred TF binding; most listed sequences are background and not binding sites; details: protein concentration: 200 nM; construct: GST-full length
T1 sequence: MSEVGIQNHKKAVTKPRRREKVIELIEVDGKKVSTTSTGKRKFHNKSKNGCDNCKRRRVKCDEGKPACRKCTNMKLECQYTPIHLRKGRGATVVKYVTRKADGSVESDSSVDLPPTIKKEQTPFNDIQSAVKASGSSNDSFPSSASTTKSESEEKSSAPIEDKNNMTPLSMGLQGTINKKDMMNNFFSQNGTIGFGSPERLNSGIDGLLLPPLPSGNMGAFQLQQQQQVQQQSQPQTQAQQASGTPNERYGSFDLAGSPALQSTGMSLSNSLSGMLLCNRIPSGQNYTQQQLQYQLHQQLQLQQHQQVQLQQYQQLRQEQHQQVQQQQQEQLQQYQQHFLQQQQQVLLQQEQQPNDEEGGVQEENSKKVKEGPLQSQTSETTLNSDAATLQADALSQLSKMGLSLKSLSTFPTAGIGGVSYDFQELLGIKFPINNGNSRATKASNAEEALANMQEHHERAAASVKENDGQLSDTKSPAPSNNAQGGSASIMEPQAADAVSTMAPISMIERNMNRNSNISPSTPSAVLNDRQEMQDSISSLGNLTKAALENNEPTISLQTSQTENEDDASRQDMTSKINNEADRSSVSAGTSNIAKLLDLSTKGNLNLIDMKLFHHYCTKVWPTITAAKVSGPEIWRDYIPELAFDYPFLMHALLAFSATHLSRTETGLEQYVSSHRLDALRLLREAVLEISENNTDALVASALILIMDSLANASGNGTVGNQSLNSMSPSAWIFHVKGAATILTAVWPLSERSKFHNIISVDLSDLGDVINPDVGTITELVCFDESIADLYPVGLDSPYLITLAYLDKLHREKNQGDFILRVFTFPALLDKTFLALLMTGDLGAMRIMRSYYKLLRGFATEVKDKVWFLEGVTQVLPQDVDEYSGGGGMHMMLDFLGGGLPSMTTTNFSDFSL
Procedure: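 Universal 'all 10-mer' protein binding microarrays (Agilent AMADID 015681) probed with GST-tagged S. cerevisiae TFs (full-length or DBD) made by in vitro transcription/translation (PURExpress), about 100-200 nM. Bound TF was detected with fluorescent anti-GST. Each ungapped 8-mer (which stands for itself and its reverse complement) is scored by the PBM enrichment score (E-score), a modified Wilcoxon-Mann-Whitney statistic from -0.5 to +0.5, computed with the Universal PBM Analysis Suite. Scale: above 0.35 generally sequence-specific binding.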

| Sequence | PBM E-score |
| --- | --- |
| CAGTGTTC | -0.0765 |
| AAATCTGT | -0.0429 |
| AAAATAGT | -0.122 |
| ATCTCGTC | 0.123 |
| CCACTGCG | -0.156 |
| AGCCCAAG | -0.323 |
| AAAGCGGT | -0.0185 |
| ATGTTCGC | 0.14 |
| GATCTCTA | -0.0508 |
| CCTTCGAC | -0.259 |
| ACTTAACG | 0.339 |
| CACGCTGC | -0.122 |
| CAAGAGGC | -0.278 |
| AGGTCCAC | -0.151 |
| ACACCTAG | -0.177 |
| CGGCACGA | 0.0717 |
| CACCTATG | -0.0273 |
| ACCTGTCA | -0.19 |
| GCGTGCTA | -0.112 |
| ATAGATGG | -0.18 |
| CTGCTCTA | -0.0369 |
| CATGTTCC | -0.133 |

| Sequence | PBM E-score |
| --- | --- |
| GCTGCCTA | -0.0208 |
| ACGGGTGC | 0.133 |
| AAATCTAC | -0.00285 |
| CAATTATA | 0.0724 |
| CGCCTTTA | 0.0401 |
| CGGTAGTA | -0.0437 |
| CCAGTCTA | -0.0148 |
| GCTTGTGA | -0.246 |
| AGTACTCC | 0.0974 |
| CGTCAGCA | -0.032 |
| ACACGGGC | -0.0605 |
| AATTTTCT | 0.0525 |
| AACAGTCT | -0.0247 |
| GATCTAAC | 0.0222 |
| AATATATG | 0.0125 |
| CCCGCCAC | -0.047 |
| AAAGGGCG | -0.1 |
| TACGCCAA | 0.223 |
| CTTCGTCA | -0.0302 |
| CGATACAC | 0.0822 |
| CGCCGAGA | -0.0496 |
| ATAAATCC | -0.0278 |

| Sequence | PBM E-score |
| --- | --- |
| CCCGATTC | -0.0726 |
| AACAAAGT | 0.0536 |
| ATTTGAAC | 0.0892 |
| ACACTGAC | -0.0488 |
| ACGAAGAC | 0.26 |
| CGCTCTGA | -0.0693 |
| CCCCGGTC | -0.246 |
| ACCGTTCG | 0.22 |
| CATCAGCA | -0.331 |
| CGTGGCTA | -0.21 |
| GATCCATC | 0.0451 |
| CATTGGGA | -0.0951 |
| AATCAATA | 0.0785 |
| TGCCCCCA | -0.118 |
| CCAGTTGC | -0.193 |
| ATCATTAA | 0.179 |
| ACAGCGAA | 0.0868 |
| TGAGAGCA | -0.207 |
| CCCCTCCG | 0.0172 |
| AACCAATA | -0.0564 |
| AAGTGTTG | 0.0948 |
| AACGAACC | 0.427 |

| Sequence | PBM E-score |
| --- | --- |
| TACAGTCA | 0.137 |
| AACACACC | -0.00316 |
| ATATTGCC | -0.0476 |
| ACAAAGTA | 0.21 |
| AGTACATC | -0.0485 |
| AGGCGCCC | -0.253 |
| CGACAGTA | 0.109 |
| AGTAATAC | 0.0139 |
| AAAGTAAC | -0.0192 |
| ACCTCTAG | -0.145 |
| AGTGAATA | -0.102 |
| GGCGCAAC | 0.00488 |
| ACGCCCAA | -0.00096 |
| CGGCTGGA | -0.122 |
| CAAGCTCC | -0.326 |
| AACTGTGC | -0.209 |
| GTGCACTA | 0.0718 |
| GCTGTCAA | 0.0108 |
| AAGGAAGG | -0.0469 |
| TCAGAACA | -0.064 |
